# Data from patent US20220251173A1.
# Target: hepatitis B virus surface antigen (HBsAg) (hepatitis B virus)
# Test: ELISA on commercial HBsAg plate, purified antibody, incubation and washes at pH 7.4, GAH-HRP, OD450/630
binder,measurement,value
"C26 DY (antibody, human IgG1, kappa) heavy: EVQLQESGPGLVKPSQTLSLTCAVSGSSITHGYHWNWIRQFPGNKLEWIGYIHYDGSVLYNPSLENRVTITRDTSKNQFFLKLSSVTAEDTAKYYCASGFDHWGQGTTLTVSS[no letters for human IgG1 constant region with K326D L328Y (EU numbers)] light: DVVMTQSPLSLPVTLGEPASISCRSSQSLVHSYGDTYLHWYLQKPGQSPKLLIYKVSNRFSGVPDRFSGSGSGTDFTLKISRVETEDLGVYYCSQNTHHPYTFGGGTKLEIKRTVAAPSVFIFPPSDEQLKSGTASVVCLLNNFYPREAKVQWKVDSALQSGNSQESVTEQDSKDSTYSLSSTLTLSKADYEKHKVYACEVTHQGLSSPVTKSFNRGEC",EC50 (read off the curve),0.03 µg/mL
